The structures appear in SMILES notation. Among all 110,000 compounds or so, about 230 (0.21%) showed an effect of 50% or more. Some of the results follow.
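Further: 30 min substrate incubation versus DMSO and 10 µM JCP410 controls.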

The target of the test is DPAP1 (Plasmodium falciparum, UniProt Q8IIJ9). The test can be described thus: primary screen, percent inhibition; read by cleavage of a fluorogenic dipeptide substrate; higher = more effect of the substance. Details: species or system P. falciparum D10 trophozoite lysates; single well.
Chain of DPAP1 (Q8IIJ9 whole entry, looked up): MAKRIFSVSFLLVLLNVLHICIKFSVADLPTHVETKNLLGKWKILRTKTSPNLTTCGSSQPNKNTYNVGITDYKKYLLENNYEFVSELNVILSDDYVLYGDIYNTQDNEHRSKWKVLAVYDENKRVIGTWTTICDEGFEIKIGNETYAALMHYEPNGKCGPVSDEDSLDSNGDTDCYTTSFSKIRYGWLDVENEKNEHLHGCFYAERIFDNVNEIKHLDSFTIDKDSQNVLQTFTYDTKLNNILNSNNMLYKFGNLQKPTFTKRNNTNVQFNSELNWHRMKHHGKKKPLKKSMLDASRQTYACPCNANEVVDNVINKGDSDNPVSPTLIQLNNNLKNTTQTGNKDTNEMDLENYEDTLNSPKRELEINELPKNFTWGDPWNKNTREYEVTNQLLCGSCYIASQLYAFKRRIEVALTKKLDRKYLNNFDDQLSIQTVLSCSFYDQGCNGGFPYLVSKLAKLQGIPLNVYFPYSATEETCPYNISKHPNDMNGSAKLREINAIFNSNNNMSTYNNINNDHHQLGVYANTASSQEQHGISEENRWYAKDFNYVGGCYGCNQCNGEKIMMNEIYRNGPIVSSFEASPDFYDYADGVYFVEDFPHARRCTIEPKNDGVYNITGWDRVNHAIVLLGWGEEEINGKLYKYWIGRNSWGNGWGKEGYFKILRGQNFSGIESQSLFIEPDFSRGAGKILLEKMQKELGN
As for `COc1ccc(OC)c(C2Nc3ccccc3N=C3CC(C)(C)CC(O)=C32)c1` (centres unmarked), the “% Inhibition @ 10 uM” value was found to be 2.67%. For the compound `CC(=O)Nc1sc2c(c1C(=O)Nc1cccc(Cl)c1)CCCCC2`, the “% Inhibition @ 10 uM” value is given as -6.25%. In the case of `O=C(C1CCN(c2nnc(N3CCCC3=O)s2)CC1)N1CCc2ccccc2C1` it was -1.08%; in that of `CCOc1cccc(C(=O)Nc2ccc(NC(=O)c3ccco3)c(OC)c2)c1`, -4.01%; in that of `N#CCNC(=O)[C@H](Cc1cccs1)NC(=O)OCc1ccccc1`, -8.82%.

For the compound `Cc1ccccc1C(=O)c1cccn1CC(=O)NCCCN1CCCC1=O`, the “% Inhibition @ 10 uM” value is 5.65%. As for `Cc1cccc(C(=O)N2CCOCC2)c1`, the figure is -0.34%; as for `Cc1ccc(S(=O)(=O)N2CCCC(C(=O)NCc3ccc(F)cc3)C2)cc1` (centres unmarked), 0.387%.

`Cc1ccc(-n2ncc(C(=O)Nc3ccccn3)c2C2CCN(C(=O)OC(C)(C)C)CC2)c(C)c1`: the “% Inhibition @ 10 uM” value is given as 0.536%.

Turning to `COc1ccc(S(=O)(=O)NCc2cn3c(C)csc3n2)cc1F`, the “% Inhibition @ 10 uM” value is reported as -0.72%. `CCSc1ncc(Cl)c(C(=O)Nc2nc3ccc(F)cc3s2)n1`: the “% Inhibition @ 10 uM” value is on record as 3.77%. As for `Cc1cccn(C(=O)C2CCCCC2)/c1=N/C(=O)C1CCCCC1`, the figure is -1.1%; as for `Cc1cc(NS(=O)(=O)c2ccc(NC(=O)c3ccc(Cl)cc3)cc2)no1`, 0.408%; as for `CCOCc1cnc(C)nc1NCC(=O)c1c(C)n(C)c2ccc(OC)cc12`, -11.3%. Consider `CCOc1ccccc1N1CCN(C(=O)C2CCCCC2)CC1`, for which the “% Inhibition @ 10 uM” value is listed as -0.622%.

As for `Fc1ccccc1N1CCN(Cc2ccc(Cl)cc2)CC1`, the “% Inhibition @ 10 uM” value is listed as 3.16%. In the case of `CCc1ccc(/C=C2\C(=N)N3N=C(N4CCCCC4)SC3=NC2=O)cc1` it was 4.88%; in that of `CN1CCN(C2=C(Cl)C(=O)N(C3CCCCC3)C2=O)CC1`, 1.58%; in that of `COc1ccc(C2=NN(c3nc(-c4ccccc4)cs3)C(c3ccco3)C2)cc1` (centres unmarked), -2.39%. In the case of `O=C(COc1ccc(Cl)cc1S(=O)(=O)NCCc1cccs1)N1CCOCC1` it was -6.13%; in that of `OCC1CCCCN1Cc1ccc2c(c1)OCO2` (centres unmarked), 2.65%. As for `CC(CCc1ccccc1)Nc1nc2c(S(=O)(=O)c3ccccc3)nnn2c2ccccc12` (centres unmarked), the figure is -0.285%; as for `COCCn1cnc2cc(C)c(C)cc21`, 0.0289%. On to `Cc1oc(-c2cccs2)nc1CSCC(=O)N1CCC2(CC1)OCCO2`, for which the “% Inhibition @ 10 uM” value came out at 3.99%. As for `O=C(C1=C(O)C(=O)N(c2ccccn2)C1c1cccnc1)c1ccccc1` (centres unmarked), the figure is 2.5%; as for `COc1ccc(/C=C/C(=O)c2c(O)cc(C)oc2=O)cc1OC`, 3.31%. Turning to `C=CCn1c(SCC)nc2c(c1=O)C1(CCCC1)Cc1ccccc1-2`, the “% Inhibition @ 10 uM” value is listed as 6.06%. As for `O=C(/C=C(\O)c1ccc(Br)cc1)C(F)(F)F`, the figure is 5.38%. For `O=C1c2cccnc2Oc2ccc(Cl)cc2N1Cc1ccc(F)cc1`, the “% Inhibition @ 10 uM” value is -13.4%. In the case of `CC1CC(C)CN(CCCNC(=O)CCn2nc(-c3ccccc3)ccc2=O)C1` (centres unmarked) it was 1.62%. Consider `CCC(C)NC(=O)CCN(Cc1c(Cl)cccc1Cl)S(=O)(=O)c1ccc(C)cc1` (centres unmarked), for which the “% Inhibition @ 10 uM” value amounted to 6.13%. In the case of `Cc1ccc(OCC(=O)Nc2ccc3c(c2)OCO3)cc1` it was 1.84%; in that of `CCOC(=O)C1CCCCN1CC[C@@H](C)CCC=C(C)C` (some centres unmarked), -6%; in that of `CCc1ccc(C2C(C#N)=C(N)OC3=C2C(=O)CCC3)s1` (centres unmarked), -6.22%. In the case of `CC(=C1C(=O)c2ccccc2C1=O)N1CCN(C/C=C/c2ccccc2)CC1` it was -3.74%; in that of `CC(C)CC(=O)N1CCN(C(=O)c2ccco2)CC1`, -2.37%. As for `Cn1c2ccc(Br)cc2c2nc3ccccc3nc21`, the “% Inhibition @ 10 uM” value was 2.83%. In the case of `CCOc1cc(/C=C2\SC(=O)NC2=O)ccc1OCC#N` it was 2.95%.

In the case of `COc1ccc(C(=O)C2=C(O)C(=O)N(CCCN(C)C)C2c2ccncc2)c(C)c1` (centres unmarked), the “% Inhibition @ 10 uM” value is recorded as -1.61%.

Take `Cc1ccc(C)c(NC(=O)Cn2cnc3ccccc3c2=O)c1`: the “% Inhibition @ 10 uM” value is 0.431%.

With `N[C@@H](CC1CCCCC1)C(=O)N[C@@H](CCc1ccccc1)CS(=O)(=O)NCCNc1ccccc1`, the “% Inhibition @ 10 uM” value is given as -0.214%. In the case of `NC(=O)c1ccccc1NC(=O)C1CC2CCC1C2` (centres unmarked) it was 3.48%; in that of `CC(C)(C)c1ccc(S(=O)(=O)/N=C2\C=CC(=O)c3ccccc32)cc1`, 3.54%; in that of `CCCCNC(=O)C1CCN(S(=O)(=O)N2CCC3(CC2)OCCO3)CC1`, -2.99%. As for `Cc1[nH]nc2c1C(c1cc(COc3ccccc3Br)c(C)s1)C(C#N)=C(N)O2` (centres unmarked), the figure is 4.7%. In the case of `CCN1CCN(Cc2ccc3ccccc3c2)CC1` it was 3.25%; in that of `Cn1c(SCC#CCO)nc2ccccc2c1=O`, -18.6%; in that of `CC12C(=O)N(c3cccc(C(=O)O)c3)C(=O)C1C1C=CC2C1` (centres unmarked), 0.992%.

Regarding `CCOC(=O)N1CCC(NC(=O)CSCc2nc(-c3ccc(OC)cc3)oc2C)CC1`, the “% Inhibition @ 10 uM” value worked out at 7.08%. As for `CN(C(=O)CCn1cnc2onc(-c3ccc(F)cc3)c2c1=O)C1CCCCC1`, the figure is -2.34%.

The values are drawn from article PMC6919601, “Identification of Plasmodium dipeptidyl aminopeptidase allosteric inhibitors by high throughput screening” (PLoS ONE, 2019).
